# From PubChem BioAssay AID1240 (Sanford-Burnham Center for Chemical Genomics, 2008)
# Out of some 50,000 compounds screened, about 800 (1.6%) showed an effect of 50% or more. The list shows a part of the results.
# Molecular target: Bcl-2-like protein 10 (Homo sapiens) (UniProt Q9HD36)
# Assay: Phenotype converters, Bcl-B/TR3 peptide binding displacement, primary biochemical FP (AID 1240);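 further: 0% = Bcl-B with tracer peptide and DMSO and 100% = tracer peptide lacking Bcl-B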
# Settings: GST-Bcl-B / FITC-TR3 peptide fluorescence polarization; stronger effect = higher value; compound at 3.75 mg/L
# Sequence of UniProt Q9HD36 (Q9HD36 whole entry, looked up): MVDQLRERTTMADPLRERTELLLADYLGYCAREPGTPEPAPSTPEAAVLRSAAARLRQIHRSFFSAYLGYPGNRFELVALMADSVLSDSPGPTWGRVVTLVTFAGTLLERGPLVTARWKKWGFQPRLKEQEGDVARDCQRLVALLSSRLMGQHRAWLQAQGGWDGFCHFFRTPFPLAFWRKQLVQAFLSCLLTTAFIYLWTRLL
row,SMILES,displacement [%]
1,O=C(O)c1cccc(NC(=O)c2ccccc2NC(=O)c2cccs2)c1,11.9
2,COc1ccc(NC(=O)COc2ccc(C)c(C)c2)cc1,-9.7
3,O=C(/C=C/c1cc(Br)cs1)Nc1ccc(Cl)cc1Cl,-0.8
4,COc1ccc(OC)c(C2Nc3ccccc3NC3=C2C(=O)CC(c2ccc(Cl)cc2)C3)c1 (configuration not stated),20.9
5,CCOc1nc(Nc2ccc(Cl)cc2)nc(N2CCCCC2)n1,8.9
6,Cc1ccc(Cl)cc1NC(=O)c1ccc(N(Cc2ccccc2)S(C)(=O)=O)cc1,-4.9
7,O=C1N/C(=N\N=C\c2cccc([N+](=O)[O-])c2)SC1Cc1cccc(Cl)c1Cl (configuration not stated),6
8,CCOC(=O)c1ccccc1NC(=O)Cn1cnc2c1c(=O)n(C)c(=O)n2C,9.5
9,Oc1ccc(/C=N/Nc2nc3ccccc3s2)c(O)c1,11.1
10,COc1ccc(Br)cc1/C=N/N=C1/NC(=O)CS1,-13.1
11,COc1ccc(C(=O)Nc2ccc3nn(-c4ccc(F)cc4)nc3c2)cc1,6.5
12,c1ccc(-c2nc(NC3CCCCC3)c3ccccc3n2)cc1,3.3
13,O=C(c1cccc(Br)c1)N1CCN(c2ccc(Cl)cc2)CC1,-3.7
14,COc1ccc(/C=C(\C(C)=O)[N+](=O)[O-])cc1,-0.9
15,C=CCOc1ccc(C=C2C(=O)NC(=S)NC2=O)cc1OC,7.8
16,Cc1cccc(-n2sc3c(c2=S)-c2ccccc2NC3(C)C)c1C,-6.7
17,O=C(CC1Sc2ccc(C(F)(F)F)cc2NC1=O)Nc1ccc(N2CCCCC2)cc1 (configuration not stated),-11.2
18,Clc1cccc(N=Cc2ccncc2)c1,9.8
19,CCOC(=O)c1c(N)sc(C(=O)Nc2cc(C)ccc2C)c1C,-0.9
20,CC(C)Cn1c(C(C)O)nc2ccccc21 (configuration not stated),1.7
21,COc1ccccc1NC1=C(Cl)C(=O)N(c2cccc(Cl)c2Cl)C1=O,2.5
22,N=C(SC1CC(=O)N(c2ccccc2Cl)C1=O)N1N=C(c2cccs2)CC1c1ccc(Br)cc1 (configuration not stated),1.4
23,CC(C)c1ccc(CNc2cc(N3CCN(C(=O)c4ccccc4F)CC3)ccc2[N+](=O)[O-])cc1,9.1
24,COc1ccc(Cl)c(NC(=O)CSc2nc(C)cc(C)n2)c1,-8.5

row,SMILES,displacement [%]
1,O=C(Nc1cccc2c1C(=O)c1ccccc1C2=O)c1ccc(S(=O)(=O)N2CCCCC2)cc1,-5.9
2,O=c1nc(/C=C/c2cc3c(cc2Br)OCO3)cc(C(F)(F)F)[nH]1,115
3,COc1ccc(OC)c(NC(=O)COc2ccc(F)cc2)c1,5.8
4,O=C(NC(=S)NCCCN1CCOCC1)c1ccc(Cl)cc1Cl,-6.5
5,COc1cc(-c2noc(-c3ccccc3)n2)cc(OC)c1OC,-0.6
6,Oc1[nH]c2ccccc2c1C=Nc1ccccc1,1.6
7,N#Cc1c(Nc2ccc(F)cc2)ccnc1N,1.1
8,CC(NC(=O)C12CC3CC(CC(C3)C1)C2)C(=O)NC1CCCCC1 (configuration not stated),-6.6
9,CSCCOC(=O)C1=C(C)NC(=O)NC1c1ccc(O)c([N+](=O)[O-])c1 (configuration not stated),16.4
10,CCCOc1ccc(C(=O)Nc2ccc(Br)cc2C(=O)O)cc1,13.6
11,C=CCN1C(=O)/C(=C\c2cc(Cl)c(O)c(Cl)c2)SC1=S,-38.1
12,O=C(Nc1ccc(Cl)cc1)c1cccc2ccccc12,14.1
13,CCN(CC)CCCCCCOc1ccccc1Br,6.9
14,Cc1ccc2ncnc(NCc3ccco3)c2c1,2.5
15,O=[N+]([O-])c1ccc2c(c1)c(C1=NCCCCC1)c(O)n2-c1c(Cl)cccc1Cl,-7.6
16,NC(=O)c1ccccc1N=Cc1cc([N+](=O)[O-])ccc1Cl,-12.8
17,CC(=O)Nc1ccc(S(=O)(=O)NC(CC(=O)O)c2ccccc2)cc1 (configuration not stated),1.2
18,O=C(Nc1ccc(Br)cc1)c1ccc([N+](=O)[O-])cc1,7
19,C=CCNC(=O)c1cccc([N+](=O)[O-])c1,-4.6
20,O=C(CCNc1ccc(-c2ccccc2)cc1)c1cccc([N+](=O)[O-])c1,-7.6
21,CC(=O)COc1ccc2c3c(c(=O)oc2c1C)CCCC3,-11.5
22,CC(C)(C)c1ccc(/C=C\C(=O)c2ccc3c(c2)OCO3)cc1,-17
23,CCOC(=O)C1=C(C)NC(=O)NC1c1ccc(OC)cc1OC (configuration not stated),16.6
24,Cc1ccc(-c2nnc(-c3ccc4c(c3)OCO4)o2)cc1,-2.6

row,SMILES,displacement [%]
1,COc1ccc([N+](=O)[O-])cc1N(CC(O)CN1CCCCC1)S(=O)(=O)c1ccccc1 (configuration not stated),-5.8
2,CC1CCC2(CC1)C(C#N)=C(SCC(N)=O)NC(=O)C2C#N (configuration not stated),-7.2
3,COC(=O)C(Cc1ccccc1)NC(=O)c1ccc(C)cc1 (configuration not stated),7.4
4,CCN(CC)S(=O)(=O)c1cc(C(=O)Nc2ccccc2OC)ccc1Cl,-0.1
5,CC(NC(=O)c1ccccc1Cl)c1ccccc1 (configuration not stated),15.9
6,O=C(NNC(=O)c1cccc(Cl)c1)c1ccc(F)cc1,-4.5
7,O=C(NCCOc1ccccc1)c1ccccc1F,-20.5
8,O=C(Nc1ccccc1)c1cc(S(=O)(=O)N2CCOCC2)ccc1Cl,-8.2
9,COc1ccc(NC(=O)c2ccc(NC(C)=O)cc2)c(OC)c1,-6.4
10,CN(C)c1ccc(/C=N/NC(=O)c2ccco2)o1,3
11,O=C(COc1ccc(Cl)cc1)N=Nc1c(O)n(CN2CCCC2)c2ccccc12,0.2
12,O=C(O)CCCCCN1C(=O)C(=O)/C(=C(\O)c2ccc(Br)cc2)C1c1ccc(F)cc1 (configuration not stated),6.3
13,COC(=O)C1CCC(c2ccccc2)CC1 (configuration not stated),-10.4
14,O=C1CC(C23CC4CC(CC(C4)C2)C3)=NN1c1ccccc1,-5.8
15,O=C(COc1ccc(Cl)cc1Br)Nc1ccc(Nc2ccccc2)cc1,-5.3
16,O=C(Nc1ccc(F)cc1)c1cc(-c2cccs2)nc2ccccc12,-6.4
17,CN1C(=O)C(O)(CC(=O)c2ccc(Br)cc2)c2ccccc21 (configuration not stated),-5.9
18,CC(NC(=O)C(c1ccccc1)c1ccccc1)C(=O)NCCN(C)C (configuration not stated),-5.2
19,O=C(CN1C(=O)/C(=C/c2cccc(Br)c2)SC1=S)Nc1cccc(C(=O)O)c1,8.7
20,O=C(NCCN1CCOCC1)c1cc(-c2cccs2)nc2ccccc12,4.5
21,COc1cc(/C=N/Nc2nc(N3CCCCC3)nc(N3CCCCC3)n2)cc(OC)c1,1.2
22,O=C(Nc1cccnc1)c1cc(S(=O)(=O)N2CCOCC2)ccc1Cl,-0.5
23,O=C(Cc1cccs1)Nc1ccc(N2CCOCC2)cc1,15.1
24,O=C1CC2c3ccccc3C1C1C(=O)N(c3ccc(Br)cc3)C(=O)C21 (configuration not stated),-1.8
